This passage reports self-cleavage results from the RNAGym collection of RNA variant scans (doi:10.7554/elife.90254).

The source gives no read counts; variants with many changes may rest on few reads.

B1: LINE1-mini (parent)
chain: GGCAGAGCUCAACACAGCGUGGCAAAGUGGCUGUGGCUAGACUGCC

This data set covers variants of B1. Kind of data set: self-cleavage, relative activity (ratio to wild type); higher = more cleavage; in vitro, sequencing; the parent is a self-cleaving ribozyme.
Consider GGCAGAGCUCAACCCAGCGUGUCAAAAUGGCUGUGACUAGACUCAC [A14C G22U G27A G36A G44C C45A], for which the self-cleavage amounted to 0.01.

Consider GGCAGAGCUCAACCCAGCGUGGCAAAGGGGCUGUGGCGAGACCGCC [A14C U28G U38G U43C], for which the self-cleavage is 0.09. In the case of GGCAGAGCUCAACGCAGCGUAGCAAAGUGGUUGUGGCUAGACUGCC [A14G G21A C31U], the self-cleavage was found to be 0.09.

As for GGCAGAGCUCAACGUAGCGUGGCAAAGUGGCUGUCGCUCUACUGCC [A14G C15U G35C A39C G40U], the self-cleavage came to 0. On to GGCAGAGCUCAACCCAGCGCGGCCAAGUGGCUGUGGCUUGACUGAC [A14C U20C A24C A39U C45A], for which the self-cleavage amounted to 0.04. As to GGCAGAGCUCAACGCAGAGUGACAAAGUGGCUGUGGCUAGACUGCC [A14G C18A G22A], the self-cleavage stood at 1.11. As to GGCAGAGCUCAACCCAGCGUGGCAAAGUGGCUGUGUCUGGACUGCA [A14C G36U A39G C46A], the self-cleavage turned out to be 0. Under GGCAGAGCUCAACCCAGCGUGGCAAAGUGGCUGUGGCUAUUCUGCC [A14C G40U A41U] stands 0.05; under GGCAGAGCUCAACGCAGCGUGGCAAAGUGGUUCUGGCUAGACUGCC [A14G C31U G33C], 0.02.

With GGCAGAGCUCAACGUAGCGUGGCACAGUGGCUUUGGCUAGACUGCC [A14G C15U A25C G33U], the self-cleavage turned out to be 0.01. As for GGCAGAGCUCAACCCAGCGUGGCAAAGUUACUGUGGCUAGACUGCC [A14C G29U G30A], the figure is 0.16.

Turning to GGCAGAGCUCAACCCAGCGUGGCAAAGUGGCUGUUGCUAGACAGCC [A14C G35U U43A], the self-cleavage amounted to 0.02. GGCAGAGCUCAACGCAGCGUGACAGAGUGGCUGAGGCUAGACUGCC [A14G G22A A25G U34A]: the self-cleavage was determined as 0.03. As for GGCAGAGCUCAACGCACCGCGGCAAAGUGGCUAUGGCUAGACUACC [A14G G17C U20C G33A G44A], the figure is 0.05; as for GGCAGAGCUCAACUCAGCGUGGCUAAGUGGCUGUGGCUAAACUGCU [A14U A24U G40A C46U], 0.05; as for GGCAGAGCUCAACGCAGCGUGGCAAAGUGGCUUUGGCUAGACUACC [A14G G33U G44A], 0.03.

Regarding GGCAGAGCUCAACGCAGCCUGGAAAAGUGGCUGUGGCUAGACUGCC [A14G G19C C23A], the self-cleavage turned out to be 0.11.

Consider GGCAGAGCUCAACCCAGCGUGGCAAAGUAGCUGUGGCUAGACUUCC [A14C G29A G44U], for which the self-cleavage was 0.12.

GGCAGAGCUCAACGCAGCGCGGCAAAGUGGCUGUGGUUAGACUGCC [A14G U20C C37U]: the self-cleavage came to 0.02.

As for GGCAGAGCUCAACGCAGCGUGGCAAAGUGGCUGUGGCUCGAAUGCC [A14G A39C C42A], the self-cleavage amounted to 0. As for GGCAGAGCUCAACCCAGCGUGGCAAAGUGGCUGUGGCCAGACUGCG [A14C U38C C46G], the figure is 0.04. Under GGCAGAGCUCAACGCAGCGAGGCAAAGUGGCUGUGGCUAGAUUGCC [A14G U20A C42U] stands 0.05; under GGCAGAGCUCAACGCAGCGUGGCAAAGUGGCUGUGGCUCGACUACC [A14G A39C G44A], 0.01. Under GGCAGAGCUCAACCCAGCGAGGCAAUGUGGCUGUGGUCAGACUGCC [A14C U20A A26U C37U U38C] stands 0.04.

Regarding GGCAGAGCUCAACGCAACGUGGCAAAGUGCCUGAGGCUAGACUCCC [A14G G17A G30C U34A G44C], the self-cleavage turned out to be 0.06. Turning to GGCAGAGCUCAACGCGGCGUGGCAAAGUGGCUGUGGCUAAACUGCC [A14G A16G G40A], the self-cleavage was found to be 0.04. As to GGCAGAGCUCAACCCAGCGUGGCAAAGUGGCUGUGGCUAGACAGCU [A14C U43A C46U], the self-cleavage came to 0.02. As for GGCAGAGCUCAACCCAGCGCGGCAAAGUGGCUGUGGCUAGACUGGC [A14C U20C C45G], the figure is 0.01. As for GGCAGAGCUCAACCCAGCGUGGCAAAGUGGCAGUGCCUAGAGUGCC [A14C U32A G36C C42G], the figure is 0.04; as for GGCAGAGCUCAACCCAGCGUGUCAAAGUGGCUGUGGCUAGAUUGCC [A14C G22U C42U], 0.12; as for GGCAGAGCUCAACCCAGCGAGGCAAAGAGGCUGUGGCUAGACUGCC [A14C U20A U28A], 0.02. As for GGCAGAGCUCAACGCAGCGGUGCAAAGUGGCUGUGGCUAGACUGCC [A14G U20G G21U], the figure is 0.33; as for GGCAGAGCUCAACGCCGCGUGGCAAUGUGGAUGUGGCUAGACUGCC [A14G A16C A26U C31A], 0.03. Turning to GGCAGAGCUCAACGGAGCGUGGAAAGGUGGCUGUGGCUAGACUGAC [A14G C15G C23A A26G C45A], the self-cleavage was 0.02. Under GGCAGAGCUCAACGCAGCGUGGCAAAGUGGAUGGGGCUAGACUGCC [A14G C31A U34G] stands 0.06; under GGCAGAGCUCAACGCAGCGUGGCAAAGUGGCCGUGGCUAGACUGAU [A14G U32C C45A C46U], 0.02. As for GGCAGAGCUCAACGCCGCUUGGAAAAGUGGCUGUGGCUAGACUGGC [A14G A16C G19U C23A C45G], the figure is 0.16; as for GGCAGAGCUCAACGCAGCGUGGAAAAGUGGCUGUGGCUAGACUGCG [A14G C23A C46G], 0.59.

As to GGCAGAGCUCAACUCUGCGUGGCACAGUGGCUGUGGCUAGACUGCC [A14U A16U A25C], the self-cleavage is 0.05. In the case of GGCAGAGCUCAACGCAGCGUGGCAAAAUGGCGGUGGCUAGACUGCC [A14G G27A U32G], the self-cleavage was 0.04. Under GGCAGAGCUCAACGCAGCGAGGCAAAGUGGCUGUGGCUAGACUGUC [A14G U20A C45U] stands 0.37. As to GGCAGAGCUCAACCCAGCGUGGCAAAAUGGCUGUGGCUAGGCUGAC [A14C G27A A41G C45A], the self-cleavage is 0.06. Under GGCAGAGCUCAACGCAGCGUGGGAAACUGGCUGUGGCUAGACUGCC [A14G C23G G27C] stands 0.13; under GGCAGAGCUCAACUCGGCGUGGCAGAGUGGCUGUGCCUAGACUGCC [A14U A16G A25G G36C], 0.01; under GGCAGAGCUCAACCCAGCGUGGCAAAGCGGCUGUGGGUAGACUGCC [A14C U28C C37G], 0.03. Regarding GGCAGAGCUCAACUCAGCGUGGCCAAGUGGCUGUGGCUAGAGUGUC [A14U A24C C42G C45U], the self-cleavage is 0.04. As for GGCAGAGCUCAACGCAACAUGGCCAAGUGGCUGUCGCUCGACUGCC [A14G G17A G19A A24C G35C A39C], the figure is 0.01; as for GGCAGAGCUCAACGCAGCCUGGCAAAGUAGCCGUGGCUAGACUGCC [A14G G19C G29A U32C], 0.03; as for GGCAGAGCUCAACGCAGAGUGGCUAAGUGGCUGUGGCUACACUGCA [A14G C18A A24U G40C C46A], 0.24. As for GGCAGAGCUCAACUCAGCGUGGCCAAGUGGAUGUGGCUAGACUGCC [A14U A24C C31A], the figure is 0.01.

For GGCAGAGCUCAACGCACCGCGGCAACGUGGCUGUGGCUAGACUGCC [A14G G17C U20C A26C], the self-cleavage came out at 0.28.

Consider GGCAGAGCUCAACCCAGCGUGGCAAAGUUGCUGUGGCUAGACAGCC [A14C G29U U43A], for which the self-cleavage stood at 0.13. On to GGCAGAGCUCAACGCAGCGUGGCAAAGUGGCUGUAGCUAGACUACC [A14G G35A G44A], for which the self-cleavage came out at 0.27.

With GGCAGAGCUCAACGCAGCGUUGCAAAGUGGCAGGGGCUAGACUGCC [A14G G21U U32A U34G], the self-cleavage stood at 0.03. Under GGCAGAGCUCAACUCUGCGUGGCAAAGUGGCUGUGGCCAUACUGCC [A14U A16U U38C G40U] stands 0.07; under GGCAGAGCUCAACGCAGCGUGGCAAAGUUGCUGUAGCUAGACUGCC [A14G G29U G35A], 0.07.
